Here are results for 88 compounds from article PMC4336329 (PLoS ONE, 2015).

Each structure is given as a SMILES string. In all, about 310,000 compounds went through this assay and about 2,200 (0.71%) showed an effect of 50% or more. Effects have a minus sign here. Some of the results follow. Where a SMILES comes first, the peptide text is derived from it. The star is where a group is joined. Bz = O=C(c1ccccc1)*

This test deals with human ether-à-go-go-related gene (hERG) potassium channel (human, UniProt Q12809). Put plainly: primary screen, population patch clamp on CHO cells stably expressing hERG.
Chain of human ether-à-go-go-related gene (hERG) potassium channel (Q12809 whole entry, looked up): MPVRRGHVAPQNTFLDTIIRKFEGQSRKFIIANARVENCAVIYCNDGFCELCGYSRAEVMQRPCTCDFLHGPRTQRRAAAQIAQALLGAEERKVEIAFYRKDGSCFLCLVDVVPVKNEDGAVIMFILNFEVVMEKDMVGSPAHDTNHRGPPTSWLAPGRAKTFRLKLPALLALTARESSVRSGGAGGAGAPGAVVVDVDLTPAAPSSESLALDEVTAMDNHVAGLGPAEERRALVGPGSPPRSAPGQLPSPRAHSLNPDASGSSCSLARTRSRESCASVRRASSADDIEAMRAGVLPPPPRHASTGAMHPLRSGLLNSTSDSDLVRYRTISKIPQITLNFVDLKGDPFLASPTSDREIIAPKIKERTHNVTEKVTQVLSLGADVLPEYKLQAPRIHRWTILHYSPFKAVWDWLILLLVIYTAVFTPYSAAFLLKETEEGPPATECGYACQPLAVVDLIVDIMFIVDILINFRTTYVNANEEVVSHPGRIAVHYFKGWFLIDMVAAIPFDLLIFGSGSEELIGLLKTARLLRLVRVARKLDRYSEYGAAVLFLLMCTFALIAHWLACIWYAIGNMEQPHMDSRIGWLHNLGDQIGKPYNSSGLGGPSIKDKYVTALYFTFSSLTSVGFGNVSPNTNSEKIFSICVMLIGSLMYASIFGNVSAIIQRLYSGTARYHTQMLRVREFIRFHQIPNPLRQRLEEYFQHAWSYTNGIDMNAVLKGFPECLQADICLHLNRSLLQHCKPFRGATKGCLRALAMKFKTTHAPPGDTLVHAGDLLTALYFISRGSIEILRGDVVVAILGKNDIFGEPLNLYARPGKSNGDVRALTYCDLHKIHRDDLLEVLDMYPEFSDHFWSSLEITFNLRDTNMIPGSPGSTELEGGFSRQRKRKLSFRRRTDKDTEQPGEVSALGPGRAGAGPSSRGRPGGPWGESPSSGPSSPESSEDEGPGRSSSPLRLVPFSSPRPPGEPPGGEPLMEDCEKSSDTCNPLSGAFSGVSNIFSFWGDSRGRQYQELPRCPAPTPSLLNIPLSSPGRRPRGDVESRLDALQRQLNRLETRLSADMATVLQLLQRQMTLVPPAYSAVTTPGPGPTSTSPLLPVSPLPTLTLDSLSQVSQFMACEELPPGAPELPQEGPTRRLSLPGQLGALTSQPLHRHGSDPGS
With `COc1ccc(CC(=O)NC(C)c2nnc(SCCOc3ccc(OC)cc3)n2C)cc1` (stereo not shown), the “hERG current change (%, negative = inhibition) at 1uM” value was determined as 4.62%. In the case of `Cc1cc(Cl)c(OCCCn2cncn2)c(Br)c1` it was 3.58%.

Regarding `CCOC(=O)c1cnc2c(Cl)cccc2c1NCCN(C)C.Cl`, the “hERG current change (%, negative = inhibition) at 1uM” value is recorded as 5.63%. The same measure for `CCc1ccc(NC(=O)c2cc(-c3cccs3)on2)cc1`: 14.4%.

For the compound `CCOC(=O)c1ccc(N=C2S/C(=C\c3cc(C)n(-c4cccnc4)c3C)C(=O)N2C)cc1`, the “hERG current change (%, negative = inhibition) at 1uM” value came out at 12.1%.

As for `Cc1ccc(CN2CCC(N3CC(C)OC(C)C3)CC2)cc1.Cl` (stereo not shown), the “hERG current change (%, negative = inhibition) at 1uM” value is given as 7.04%.

With `COc1ccc(-c2nnc3n2N=C(C)CS3)cc1`, the “hERG current change (%, negative = inhibition) at 1uM” value was 7.88%. As for `O=C(CN1CCN(S(=O)(=O)c2ccc(Cl)cc2)CC1)NC(=O)NC1CCCCC1`, the “hERG current change (%, negative = inhibition) at 1uM” value was determined as 1.4%. On to `O=C(NCCc1nnc2ccc(N3CCCC3)nn12)c1ccccc1`, for which the “hERG current change (%, negative = inhibition) at 1uM” value is given as -4.06%. In the case of `O=C(NC1CC2CCCC(C1)N2C(=O)Nc1ccccc1F)C1CC1` (stereo not shown) it was 16.9%; in that of `CCCCNC(=O)c1ccc(CNc2c(N3CCC(C(=O)OCC)CC3)c(=O)c2=O)cc1`, -4.25%; in that of `Cc1nc2cc([N+](=O)[O-])ccc2c(=O)n1-c1ccc(Br)cc1`, 10.8%.

With `CS(=O)(=O)N1CC(C(=O)NN)Oc2ccc(Cl)cc21` (stereo not shown), the “hERG current change (%, negative = inhibition) at 1uM” value was 10.7%. Consider `O=c1cc(O)nc(SCc2ccc(Cl)cc2)[nH]1`, for which the “hERG current change (%, negative = inhibition) at 1uM” value is given as -1.97%. In the case of `Cc1ccccc1NC(=O)N1CCN(S(=O)(=O)c2ccccc2)CC1` it was 14.8%; in that of `C[C@H](NC(=O)c1nc[nH]c1C(=O)N1CCc2ccccc2C1)C(=O)OC(C)(C)C`, 8.53%. Regarding `COc1ccc(Cl)cc1C(=O)NCCCSc1ccccc1`, the “hERG current change (%, negative = inhibition) at 1uM” value was determined as 20.7%.

For the compound `O=C(CSc1nc2ccccc2s1)NCc1ccc2c(c1)OCO2`, the “hERG current change (%, negative = inhibition) at 1uM” value is 5.29%. Consider `CC1CCN(C(=S)SCc2nc(N)nc(Nc3ccccc3)n2)CC1`, for which the “hERG current change (%, negative = inhibition) at 1uM” value was found to be 9.75%.

For `CCc1nnc(NC(=O)COc2ccc3c(c2)OCO3)s1`, the “hERG current change (%, negative = inhibition) at 1uM” value is reported as 11.6%. The same measure for `CCCCCCSc1ccc([C@H]2N[C@@](Cc3ccccc3)(C(=O)OC)[C@H]3C(=O)N(C)C(=O)[C@@H]23)cc1.O=C(O)C(F)(F)F`: 7.73%; for `CN(C)S(=O)(=O)c1cccc(-c2cn3ccccc3n2)c1`: 7.18%. Consider `O=C(NCC1CCCN(Cc2cccc(C(F)(F)F)c2)C1)c1ccc(F)cc1` (stereo not shown), for which the “hERG current change (%, negative = inhibition) at 1uM” value was -5.71%. In the case of `C/C(CC(=O)NCc1ccc(Cl)cc1)=N\NC(=O)Cc1ccccc1` it was 8.4%; in that of `Cc1ccc(-c2csc(N(C)C(=O)c3c(C)nn(-c4ccccc4)c3Cl)n2)cc1`, 19.8%. For `CCOC(=O)c1ccc(NC(=O)CSc2nc(SC)ns2)cc1`, the “hERG current change (%, negative = inhibition) at 1uM” value is 13.3%.

For `O=C(COC(=O)c1ccccc1Oc1ccccc1)NC1CC1`, the “hERG current change (%, negative = inhibition) at 1uM” value was found to be 3.68%. In the case of `CCOC(=O)CNC(=O)CNC(=O)c1nn(-c2ccc(OC)c(OC)c2)c(=O)c2ccccc12`, the “hERG current change (%, negative = inhibition) at 1uM” value amounted to 9.4%. Regarding `COc1ccccc1C1CCN(C(=O)C2CCCCC2)CC1`, the “hERG current change (%, negative = inhibition) at 1uM” value was 10.8%. As for `CC(=Nc1ccc(C)cc1C)c1sc2ccccc2c1O`, the “hERG current change (%, negative = inhibition) at 1uM” value came to 2.63%. For `COc1ccc(CN2CC(=O)N(c3ccc(C)cc3)C2=S)cc1OC`, the “hERG current change (%, negative = inhibition) at 1uM” value turned out to be 5.32%.

`O=C(NCCc1ccccc1)/C(=C/c1ccco1)c1ccccc1`: the “hERG current change (%, negative = inhibition) at 1uM” value stood at 10.9%.

Regarding `O=C(CSc1nnc(NC(=O)C2CCC2)s1)Nc1ccccc1F`, the “hERG current change (%, negative = inhibition) at 1uM” value came to 13.9%. In the case of `O=C(NC(Cc1ccccc1)C(=O)NC(Cc1ccccc1)C(=O)O)c1ccccc1` (stereo not drawn) (Bz-Phe-Phe-OH; configuration not given here) it was 19.7%. In the case of `COc1cc(-c2nnc(NC(=O)c3ccc(S(=O)(=O)N4CCOCC4)cc3)o2)cc(OC)c1OC`, the “hERG current change (%, negative = inhibition) at 1uM” value is on record as 13.7%.

As for `Cc1nonc1NC(=O)CSc1nc(C2CCCCC2)nc2ccccc12`, the “hERG current change (%, negative = inhibition) at 1uM” value amounted to 3.38%. In the case of `COc1ccc2nc(C)c3cc(C)oc3c2c1` it was 2.49%; in that of `CC1CCCN(CCCOc2ccc([N+](=O)[O-])cc2)C1.O=C(O)C(=O)O` (stereo not shown), -77.4%. The same measure for `Cc1ccc(Cc2c(C)[nH]c(=S)[nH]c2=O)cc1`: 15.3%; for `CCn1c(SCc2cccc(F)c2)nnc1-c1ccncc1`: 11.9%; for `CCOC(=O)CSc1nc2cc(C(F)(F)F)cnc2n1C`: 2.73%. As for `COc1ccc(NC(=O)c2nnn(Cc3cccc(F)c3)c2N)c(OC)c1`, the “hERG current change (%, negative = inhibition) at 1uM” value stood at 9.17%. On to `CCn1c(CC(C)C)n[nH]c1=S`, for which the “hERG current change (%, negative = inhibition) at 1uM” value turned out to be 2.92%. Take `CCOc1ccc(C(=O)CCC(=O)NCC(=O)OCc2ccccc2)cc1OCC`: the “hERG current change (%, negative = inhibition) at 1uM” value is on record as 15.2%. The same measure for `C#CCNC(=O)C1=C[C@@H](c2ccc(C(F)(F)F)cc2)C[C@@H](OCc2ccc(CO)cc2)O1`: 3.5%; for `CCOc1ccc(C(N)=O)cc1OC`: 3.09%. As to `CCc1ccc(-n2c(SCC(=O)c3ccc4c(c3)NC(=O)CO4)nc3ccccc3c2=O)cc1`, the “hERG current change (%, negative = inhibition) at 1uM” value is 7.58%.

Consider `COc1cccc(Nc2nc(NCCO)c3ccccc3n2)c1.Cl`, for which the “hERG current change (%, negative = inhibition) at 1uM” value is -11.4%. In the case of `CN(CC(=O)Nc1ccc(N2CCOCC2)cc1)Cc1c(O)ccc2ccccc12` it was 9.83%; in that of `COc1cccc(CN(C)C(=O)C2CC(=O)N(c3ccc4c(c3)OCCO4)C2)c1` (stereo not shown), 14.1%. Take `O=C(COC(=O)CNS(=O)(=O)c1ccc2ccccc2c1)Nc1ccccc1Sc1ccccc1`: the “hERG current change (%, negative = inhibition) at 1uM” value was found to be 17.1%.

`CCOc1ccccc1/C=C\c1nc(O)c([N+](=O)[O-])c(=O)[nH]1`: the “hERG current change (%, negative = inhibition) at 1uM” value is on record as 12.1%.

For the compound `COc1ccccc1NC(=O)c1nn(C)cc1Br`, the “hERG current change (%, negative = inhibition) at 1uM” value is on record as 15.2%. The same measure for `Cc1cccc(C)c1OCC(=O)NNC(=O)CCNC(=O)c1ccc(Br)cc1`: -4.97%.

In the case of `CN1C(=O)N(C)c2cccc3cccc1c23`, the “hERG current change (%, negative = inhibition) at 1uM” value was 6.28%. `CC(Cc1c[nH]c2ccccc12)C(=O)N1CCN(c2ccccc2F)CC1` (stereo not shown): the “hERG current change (%, negative = inhibition) at 1uM” value was 15.5%.

As to `Cc1ccc(S(=O)(=O)NCCN(CCNS(=O)(=O)c2ccc(C)cc2)S(C)(=O)=O)cc1`, the “hERG current change (%, negative = inhibition) at 1uM” value turned out to be 22.4%. On to `Nc1ncnc2c1ncn2C1OC(CO)C(O)C1O` (stereo not shown), for which the “hERG current change (%, negative = inhibition) at 1uM” value was 11.8%. As for `COc1ccc(NC(=O)CN(C)C(=O)CNC(=O)c2cccs2)cc1`, the “hERG current change (%, negative = inhibition) at 1uM” value is 7.34%. The same measure for `CC(C)Cc1ccc(CN2CCCC(NC(=O)CSc3nncn3C)C2)cc1` (stereo not shown): 12.1%; for `O=C(Nc1cccc2c1CCCC2)c1ccc(Br)o1`: -4.3%; for `CCCCN(C)C/C(O)=C(\C#N)c1nc(-c2ccccc2)cs1`: 8.36%. Consider `COc1ccc(C2C3=C(CCCC3=O)Nc3c(-c4ccccc4)c(C)nn32)cc1` (stereo not shown), for which the “hERG current change (%, negative = inhibition) at 1uM” value stood at 12.5%. For `Cc1ccc2cc3c(nc2c1)N(c1ccccc1)CC3`, the “hERG current change (%, negative = inhibition) at 1uM” value is reported as 9.32%. As for `COc1ccc(N=C2NN=C(c3ccc4c(c3)OCCO4)CS2)cc1`, the “hERG current change (%, negative = inhibition) at 1uM” value came out at 13.8%. As to `CN(C)S(=O)(=O)c1ccc2c(c1)nc(CCC(=O)Nc1ccc3c(c1)OCO3)n2C`, the “hERG current change (%, negative = inhibition) at 1uM” value was 6.1%. The same measure for `Cc1c(NC(=O)C23CC4CC(CC(Br)(C4)C2)C3)c(=O)n(-c2ccccc2)n1C`: 12.8%; for `CCOC(=O)C1NN=C(C(=O)c2ccccc2)C1c1ccc(Cl)cc1` (stereo not shown): 4.24%; for `O=C(NCc1ccccn1)C(=O)NCC(c1ccco1)N1CCOCC1` (stereo not shown): 10.7%. The same measure for `CCOc1ccc(N2C(=O)C3CCCN3C2=O)cc1` (stereo not shown): 16.1%.

For the compound `CCOc1ccc(NS(=O)(=O)c2ccc(C(=O)N(CC)CC(=O)NCc3cccs3)cc2)cc1`, the “hERG current change (%, negative = inhibition) at 1uM” value was determined as 6.53%.

Consider `O=S1(=O)Cc2cc3ccccc3cc2C1`, for which the “hERG current change (%, negative = inhibition) at 1uM” value was found to be 12.4%.

As to `N#CCC(=O)Nc1ccc(C(=O)OCC(=O)C23CC4CC(CC(C4)C2)C3)cc1`, the “hERG current change (%, negative = inhibition) at 1uM” value stood at 11.4%. In the case of `O=C(Cc1cccc2ccccc12)N1CC[C@@]2(O)CCCC[C@H]2C1` it was 12.5%; in that of `O=S(=O)(c1ccc(NCCOCCO)nc1)N1CCCCC1`, 9.8%. The same measure for `COCCN(C(=O)CSCc1ccccc1)c1c(N)n(Cc2ccccc2)c(=O)[nH]c1=O`: -0.41%. In the case of `CCOC(=O)COc1nc(N(C)C)nc(N(C)C)n1` it was 4%; in that of `COCCNC(C(=O)Nc1ccc(C)cc1[N+](=O)[O-])c1ccccc1` (stereo not shown), 12.5%; in that of `C=C(C)CN1CCN(c2ccc(N3C(=O)CCCC3=O)cc2[N+](=O)[O-])CC1`, 9.9%. `COc1ccc(C(=O)Oc2ccc(-c3nnco3)cc2)cc1S(=O)(=O)N1CCOCC1`: the “hERG current change (%, negative = inhibition) at 1uM” value was determined as 6.8%.

On to `COc1ccccc1CNC(=O)C1CCN(S(=O)(=O)c2ccc(-n3cnnn3)cc2)CC1`, for which the “hERG current change (%, negative = inhibition) at 1uM” value was -9.4%. As for `Cc1ccc(C(=O)Nc2ccc(C)c(S(=O)(=O)Nc3ccccc3Cl)c2)s1`, the “hERG current change (%, negative = inhibition) at 1uM” value was found to be 0.857%. In the case of `CCOc1cc(N2CCOCC2)c(OCC)cc1NC(=O)CSc1ncccn1` it was 3.41%; in that of `O=[N+]([O-])c1cc(-c2nnc(C34CC5CC(CC(C5)C3)C4)o2)cc([N+](=O)[O-])c1`, -5.78%. The same measure for `COCCn1c(SCC(=O)N2CCCc3ccccc32)nnc1-c1ccco1`: 12.2%; for `Cc1cc(NC(=O)CN2C(=O)NC(C)(c3ccccc3)C2=O)no1` (stereo not shown): -15.9%; for `O=C(O)c1ccc(NC(=O)c2ccccc2Br)c(NC(=O)c2ccccc2Br)c1`: 13.1%. On to `Cc1ccc(COC(=O)Cc2coc3cc(O)ccc23)cc1`, for which the “hERG current change (%, negative = inhibition) at 1uM” value came out at 8.06%.
